In publication PMC6919601, “Identification of Plasmodium dipeptidyl aminopeptidase allosteric inhibitors by high throughput screening” (PLoS ONE, 2019):
Where “and” joins values, the source holds several entries; their conditions need not be identical. Identical values can stand only once. Hit rate of the full screen: of about 110,000 compounds, about 230 (0.21%) showed an effect of 50% or more. This is one part of the list.

Target: DPAP1 (Plasmodium falciparum, UniProt Q8IIJ9)
Experiment: primary screen, percent inhibition; read by cleavage of a fluorogenic dipeptide substrate; higher = more effect of the substance
Design: species or system P. falciparum D10 trophozoite lysates; single well
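Note: 30 min substrate incubation versus DMSO and 10 µM JCP410 controls.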

Chain of DPAP1 (Q8IIJ9 whole entry, looked up): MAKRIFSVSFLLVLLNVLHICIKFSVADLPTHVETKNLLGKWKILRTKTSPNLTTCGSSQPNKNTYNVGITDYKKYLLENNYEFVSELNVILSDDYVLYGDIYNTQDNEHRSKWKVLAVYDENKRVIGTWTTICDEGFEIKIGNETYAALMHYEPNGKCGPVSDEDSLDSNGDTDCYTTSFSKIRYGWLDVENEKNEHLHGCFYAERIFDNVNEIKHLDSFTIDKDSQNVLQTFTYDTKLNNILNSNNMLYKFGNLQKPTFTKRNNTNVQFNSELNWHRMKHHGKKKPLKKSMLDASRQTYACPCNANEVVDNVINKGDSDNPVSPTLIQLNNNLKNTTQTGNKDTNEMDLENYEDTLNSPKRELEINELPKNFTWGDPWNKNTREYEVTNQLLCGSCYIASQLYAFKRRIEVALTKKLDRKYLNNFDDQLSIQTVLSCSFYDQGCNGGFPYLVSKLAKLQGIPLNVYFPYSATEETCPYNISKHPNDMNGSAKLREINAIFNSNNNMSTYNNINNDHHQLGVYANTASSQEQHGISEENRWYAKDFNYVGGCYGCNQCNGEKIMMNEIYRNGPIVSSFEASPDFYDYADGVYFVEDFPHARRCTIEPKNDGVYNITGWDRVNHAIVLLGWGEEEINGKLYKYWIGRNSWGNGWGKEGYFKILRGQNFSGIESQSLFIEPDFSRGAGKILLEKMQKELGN

Structure (SMILES) | % Inhibition @ 10 uM
N#CC(C(=O)NCc1ccco1)c1ccccc1 (stereo not drawn) | -6.42%
CC(/C=C(\O)c1cccnc1)=N\c1cccc(Cl)c1C | -10.2%
CCCCSc1nnc2c(n1)OC(c1ccccc1)Nc1ccccc1-2 (stereo not drawn) | -6.88%
OC(COc1ccc(Cl)cc1)CN1CCC(Cc2ccccc2)CC1 (stereo not drawn) | -3.94%
O=C(Nc1ccccn1)Nc1cccs1 | -1.7%
CC(C)OCCCNC(=O)CN1C(=O)c2ccccc2S1(=O)=O | -0.671%
O=C(NCCC1=CCCCC1)C1CCN(c2nn3cc(-c4ccc(F)cc4)nc3s2)CC1 | 4.11%
Cc1cc(/C=C2\C(=O)NC(=O)N(C)C2=O)c(C)n1-c1ccccc1F | 18.3%
COc1cccc(NC(=O)c2cc(NC(=O)c3ccccc3)cc(NC(=O)c3ccccc3)c2)c1 | -1.61%
COc1ccc(S(=O)(=O)Nc2ccc(S(=O)(=O)N3CCOCC3)cc2)c(Cl)c1Cl | 4.81%
COC(=O)C1=CN(C(C)C)C=C(C(=O)OC)C1c1ccsc1 | 1.86%
COc1ccc(-n2c(Cc3cccn3C)nnc2SCC(=O)N2CCOCC2)cc1 | 2.74%
CCSC1=C(C#N)C(c2ccccc2C)CC(=O)N1 (stereo not drawn) | -8.98%
CC(=O)NCCOc1c(C)cc(S(N)(=O)=O)cc1C | 2.1%
OC1C2(c3ccccc3)CN3CC1(c1ccccc1)CN(C2)C3c1c[nH]c2ccccc12 (stereo not drawn) | 1.9%
COc1cc(-c2nc3c4c(C)c(C)oc4ncn3n2)cc(OC)c1OC | -1.88%
CC1(C)CC(=O)c2c(nc3ccccc3c2NCc2ccccc2)C1 | 0.611%
COc1ccccc1C(=O)NCC1CCCO1 (stereo not drawn) | 1.54%
O=C1c2ccccc2C(=O)N1CC(=O)n1nc(-c2cccnc2)nc1NCc1ccc(F)cc1 | 0.558%
COc1cccc(Cn2c(C)c(CNCc3ccc(C)o3)c(C(=O)O)c2C)c1 | 2.99%
N#Cc1ccc(-c2ccc3c(c2)OCO3)nc1SCC(=O)Nc1cc(F)ccc1F | -2.77%

Structure (SMILES) | % Inhibition @ 10 uM
C=CC(=O)NC1(CC(C)CC)CCCCC1 (stereo not drawn) | 4.03%
CC(C)C[C@H](NC(=O)c1ccc(OCCCc2ccccn2)cc1)C(=O)NCC#N | -0.778%
O=C(O)C1C2C=CC3(CN(CCc4ccccc4)C(=O)C13)O2 (stereo not drawn) | -3.74%
COc1cc2c(cc1OC)C(O)C(C)(C)NC2 (stereo not drawn) | 2.22% and 1.72%
NS(=O)(=O)c1cccc(Nc2nc3ccccc3nc2NS(=O)(=O)c2ccccc2)c1 | -2.72%
CC(=O)N1CCc2c(sc3nc(SCc4cccc(F)c4)n(Cc4ccco4)c(=O)c23)C1 | 2.97%
Cc1ccc(Cn2c(=N)n(CCO)c3ccccc32)cc1 | 3.81%
COc1ccc(Cl)cc1C(=O)O/N=C1/C=C(C(C)C)C(=O)C=C1C | -2.14%
Cc1ccc(CNC(=O)c2nnc(Cc3c(F)cccc3Cl)o2)cc1 | 1.49%
Cc1c(C(=O)NC2CCCCCC2)cccc1[N+](=O)[O-] | -4.15%
CCN(CC)C(=O)C1CCCN(Cc2ccccc2C(F)(F)F)C1 (stereo not drawn) | 4.81%
Cc1ccccc1NS(=O)(=O)c1cc(Cl)ccc1Cl | 0.247%
CNS(=O)(=O)c1ccc(Oc2ccc(S(=O)(=O)NC)cc2)cc1 | -3.55%
O=C(Cn1nc(Cc2cccnc2)c2ccccc2c1=O)N1CCOCC1 | -1.21%
CCCCOC(=O)C1=C(C)NC(=O)NC1c1ccccc1OCC (stereo not drawn) | 18.1%
CCOc1ccc(C(=O)C2=C(O)C(=O)N(CC3CCCO3)C2c2cccs2)cc1 (stereo not drawn) | 1.57%
CCOC(=O)c1[nH]c(C)c(C(=O)C(C)CC)c1C (stereo not drawn) | -0.274%
O=C(NCCc1c[nH]c2ccccc12)C(Cc1ccccc1)N1Cc2ccccc2C1=O (stereo not drawn) | 0.0322%
CCn1c2ccccc2c2cc(CN3CCN(CCO)CC3)ccc21 | 3.48%
CCCN1C(=O)c2ccccc2NC1c1ccc(O)c(OC)c1 (stereo not drawn) | -0.48%
Fc1ccccc1N1CCN(Cc2ccccc2Cl)CC1 | -0.192%

Structure (SMILES) | % Inhibition @ 10 uM
Cc1cc(C)n(-c2cc(N3CCOCC3)ncn2)n1 | 0.708%
O=S(=O)(Nc1cccc(O)c1)c1ccc(Cl)cc1 | -0.546%
CCOC(=O)N1CCN(c2c(NCCCN3CCCC(C)C3)c(=O)c2=O)CC1 (stereo not drawn) | -1.65%
CN1CCc2nc3sc(C#N)c(N)c3c(-c3cccs3)c2C1 | -4.43%
Cc1ccc(-c2nc(C(=O)NC3CCN(Cc4ccccc4)CC3)c3n2CCCCC3)cc1 | 1.97%
CS/C(=N\CC1CCCO1)Nc1[nH]nc(C)c1-c1ccccc1F (stereo not drawn) | 2.73%
CCS(=O)(=O)c1nc(S(=O)(=O)c2ccc(Cl)cc2)c(N2CCC(C)CC2)s1 | -2.25%
O=C(Cc1ccccc1)NCCc1c[nH]c2ccccc12 | -5.69%
CCCOc1ccc(C(=O)C2=C(O)C(=O)N(CCCN3CCOCC3)C2c2ccc(C)cc2)c(C)c1 (stereo not drawn) | 1.31%
Cc1ccc(C2c3c(-c4ccccc4O)n[nH]c3C(=O)N2Cc2ccncc2)cc1 (stereo not drawn) | 10.6%
COc1cc2c(N3CCCCCC3)cc(O)c(CC(=O)Nc3ccccc3)c2cc1OC | 12.1%
CCOc1ccccc1C1C(C#N)=C(SC)N=C2CCCC(O)=C21 (stereo not drawn) | -1.4%
CCC(C)(NC(=O)CNC(=O)c1ccccc1)C(=O)NC1CCCC1 (stereo not drawn) | 3.61%
Cn1c(=O)[nH]c(=O)c2[nH]c(Cc3ccccc3)nc21 | 7.86%
CCOc1ccccc1N(CC(=O)NC1CC2CCC1C2)S(=O)(=O)c1ccccc1 (stereo not drawn) | -7.62%
CC1=C(C(=O)Nc2cccnc2)C(c2ccc(Cl)cc2)n2nc(-c3cccnc3)nc2N1 (stereo not drawn) | -3.28%
CC(C)Sc1cc(N2CCOCC2)nc(-c2ccccc2)n1 | 2.63%
O=C1C2C3C=CC(CC3)C2C(=O)N1c1cc(C(F)(F)F)ccc1Cl (stereo not drawn) | -5.31%
Cn1nc(C(=O)NCc2ccc3c(c2)OCO3)c2c1-c1ccccc1SC2 | 86.5%
COc1cccc(N2CCN(C3CCC(c4ccccc4)CC3)CC2)c1 (stereo not drawn) | -3.5%
CC1CCc2c(sc3nc(SCC(=O)O)nc(N)c23)C1 (stereo not drawn) | -2.37%
